One molecule from patent EP2294930A2 (Ventria Bioscience, dated 2011) can be followed below.

The target of the experiment is T1, native human alpha-1-antitrypsin (purified AAT from human plasma) (human, UniProt P01009, glycosylated).
T1 construct: mature; also called native AAT
Description: band shift assay: AAT sample with 100 ng PPE, 37 C, 15 min; covalent-linked complex seen by SDS-PAGE and Western blot. Background: In western blotting, separated proteins are transferred to a membrane and probed.

B1: porcine pancreatic elastase (enzyme, UniProt P00772 27-266, looked up)
chain: VVGGTEAQRNSWPSQISLQYRSGSSWAHTCGGTLIRQNWVMTAAHCVDRELTFRVVVGEHNLNQNDGTEQYVGVQKIVVHPYWNTDDVAAGYDIALLRLAQSVTLNSYVQLGVLPRAGTILANNSPCYITGWGLTRTNGQLAQTLQQAYLPTVDYAICSSSSYWGSTVKNSMVCAGGDGVRSGCQGDSGGPLHCLVNGQYAVHGVTSFVSRLGCNVTRKPTVFTRVSAYISWINNVIASN
notes: also called PPE
As to B1, the binding result is reported as “binds”.
